The list shows a part of the results. Values were computed here from the reads of four pooled replicates and scatter widely.
biological target: T1, Pho4 (S. cerevisiae) (UniProt P07270); experiment: relative binding free energy (BET-seq); higher = weaker binding; conditions: reference: library average
T1 sequence: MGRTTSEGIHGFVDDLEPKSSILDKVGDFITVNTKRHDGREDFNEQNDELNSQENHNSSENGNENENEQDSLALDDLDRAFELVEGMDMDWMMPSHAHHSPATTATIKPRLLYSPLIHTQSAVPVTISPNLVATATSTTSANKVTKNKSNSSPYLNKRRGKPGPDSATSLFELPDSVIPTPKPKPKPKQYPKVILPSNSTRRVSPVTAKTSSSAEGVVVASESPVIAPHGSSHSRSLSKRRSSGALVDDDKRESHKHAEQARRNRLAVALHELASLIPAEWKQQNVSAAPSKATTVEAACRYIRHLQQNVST

Sequence	relative binding free energy
TCGGGCACGTGTCGTG	-0.21 kcal/mol
GACGGCACGTGGTTTT	0.01 kcal/mol
TTGGCCACGTGAAGTT	0.23 kcal/mol
GATGTCACGTGTTTGG	0.32 kcal/mol
GTTGGCACGTGTCTTA	-0.1 kcal/mol
GGCATCACGTGGGTCT	0.07 kcal/mol
GCGGGCACGTGATGGT	0.09 kcal/mol
CGGTACACGTGGGCGT	-0.09 kcal/mol
TGTGTCACGTGCTAGT	-0.1 kcal/mol
TGTGGCACGTGAGCGT	-0.09 kcal/mol
TGGTTCACGTGTCGCA	0.43 kcal/mol
TATGTCACGTGGAACG	0.16 kcal/mol
TATTTCACGTGAAGGA	0.38 kcal/mol
ATTATCACGTGGTTCT	0.05 kcal/mol
TGGGGCACGTGCGGCG	-0.16 kcal/mol
GGTGCCACGTGGCGCG	-0.17 kcal/mol
TTTGGCACGTGGTTCT	-0.09 kcal/mol
AGTATCACGTGAAAAT	0.47 kcal/mol
GGTGTCACGTGACTGG	0.25 kcal/mol
GTGCTCACGTGGGCTG	0.2 kcal/mol
AGTGTCACGTGTTCTA	0.05 kcal/mol
GTGAACACGTGCGTGT	-0.08 kcal/mol
TTGAACACGTGCGGTG	-0.1 kcal/mol
GGATGCACGTGCTGCG	-0.1 kcal/mol
AGACGCACGTGTAGGG	-0.17 kcal/mol

Sequence	relative binding free energy
TTTTTCACGTGAACCG	0.57 kcal/mol
GAGGGCACGTGTATGA	0.1 kcal/mol
AGAGGCACGTGAGACG	0.1 kcal/mol
CGTGTCACGTGGCTGT	-0.1 kcal/mol
AATGGCACGTGTTGAC	-0.03 kcal/mol
TCTGTCACGTGGGTGG	-0.03 kcal/mol
ATGTTCACGTGGCGGA	0.05 kcal/mol
TTTCTCACGTGAGTGG	0.5 kcal/mol
TGTGTCACGTGTGGAT	0.09 kcal/mol
TCTTACACGTGGTTTT	0.07 kcal/mol
TGATACACGTGATTGG	0.02 kcal/mol
GGGAGCACGTGTGGTT	0.03 kcal/mol
AGGCGCACGTGGTTTA	-0.08 kcal/mol
AATGACACGTGGTTAT	0.05 kcal/mol
AGTTTCACGTGCGATT	0.3 kcal/mol
TTTGACACGTGAACTT	0.37 kcal/mol
GTATTCACGTGAGAGG	0.38 kcal/mol
TGCTTCACGTGTTGGT	0.2 kcal/mol
CTGGGCACGTGGATAT	-0.07 kcal/mol
GTTCTCACGTGGGTGA	0.19 kcal/mol
GACAGCACGTGGAGGG	-0.03 kcal/mol
TATGACACGTGGGTCT	-0.17 kcal/mol
GCGTGCACGTGTAGGG	-0.01 kcal/mol
CTATTCACGTGTTGTA	0.12 kcal/mol
TTCTGCACGTGCTTTA	0.01 kcal/mol

Sequence	relative binding free energy
TATATCACGTGTAGTT	0.2 kcal/mol
TCATGCACGTGATTTT	0.22 kcal/mol
ATGAGCACGTGAGTGC	0.22 kcal/mol
CTAGACACGTGGGGGT	-0.07 kcal/mol
GCTGACACGTGTAGGG	-0.02 kcal/mol
CGTGACACGTGTGGCG	0.01 kcal/mol
TTATACACGTGCAGTG	0.06 kcal/mol
CAGGTCACGTGCGTTG	0.14 kcal/mol
TCGCGCACGTGGGGTG	-0.33 kcal/mol
AGCTGCACGTGAAGGA	0.24 kcal/mol
GTCTTCACGTGTTGGC	0.38 kcal/mol
GTTTACACGTGACGTG	0.29 kcal/mol
AATGGCACGTGGGGGG	-0.25 kcal/mol
CCTGACACGTGGGTGG	-0.06 kcal/mol
TACTTCACGTGCGGTG	0.24 kcal/mol
CTTAGCACGTGATATG	0.04 kcal/mol
TCGGGCACGTGATGTT	0.07 kcal/mol
CGGTGCACGTGGTTTG	-0.03 kcal/mol
CTTGTCACGTGGGTTC	0.07 kcal/mol
TAGCTCACGTGGTTTG	0.22 kcal/mol
GGCGACACGTGCAGGG	-0.05 kcal/mol
TGATTCACGTGGGGAT	0.09 kcal/mol
CGTTACACGTGTGGAT	0.04 kcal/mol
GGAGTCACGTGCGATG	0.16 kcal/mol
TGTAGCACGTGAGGGT	0.27 kcal/mol

Sequence	relative binding free energy
CATTTCACGTGCGGAG	0.46 kcal/mol
GGAGACACGTGTGGAA	0.02 kcal/mol
TGTGTCACGTGCTGCA	0.04 kcal/mol
ATTTGCACGTGTAGCA	-0.03 kcal/mol
CGAGGCACGTGCTGGT	-0.12 kcal/mol
GTAAACACGTGTTTTT	0.07 kcal/mol
GTTTTCACGTGGGGAC	0.28 kcal/mol
CTCGTCACGTGGGTTA	-0.09 kcal/mol
GTGTACACGTGCTAGG	-0.04 kcal/mol
CTGTCCACGTGGTTGG	-0.05 kcal/mol
TGCAGCACGTGGGAAT	-0.1 kcal/mol
TTGTTCACGTGGTACT	0.16 kcal/mol
TAGTCCACGTGTGGGG	0.08 kcal/mol
GGTGTCACGTGTCCGG	0.17 kcal/mol
TAGCCCACGTGGGTGT	-0.32 kcal/mol
GGTTTCACGTGAGAGT	0.38 kcal/mol
AGATGCACGTGGGAAG	-0.05 kcal/mol
GTACGCACGTGTGAGT	-0.05 kcal/mol
GGTGTCACGTGGAGGT	0.14 kcal/mol
AGGTGCACGTGTAGCT	0.01 kcal/mol
TGTCTCACGTGGTCGT	0.05 kcal/mol
AGTGGCACGTGTTGTT	-0.06 kcal/mol
GGGAGCACGTGGCGGG	-0.03 kcal/mol
GTTTCCACGTGGTGTG	0.09 kcal/mol
AGGGCCACGTGGGGTT	-0.17 kcal/mol

Sequence	relative binding free energy
AAGAGCACGTGGTCTT	-0.13 kcal/mol
TCGTTCACGTGTTGCT	0.4 kcal/mol
GGGTTCACGTGTCATG	0.28 kcal/mol
TTTGTCACGTGGCTGC	0.05 kcal/mol
GGTTCCACGTGGGGTC	0.04 kcal/mol
TTGTACACGTGGACGG	0.2 kcal/mol
CGTAACACGTGTTCGT	0.2 kcal/mol
AGTTGCACGTGGGCCG	-0.24 kcal/mol
GGAGTCACGTGCGTTG	0.14 kcal/mol
GGTCTCACGTGTATTT	0.21 kcal/mol
AGGATCACGTGCGGCG	0.18 kcal/mol
GTGTGCACGTGGTATC	-0.09 kcal/mol
TAGAGCACGTGGCGGA	-0.28 kcal/mol
GGTACCACGTGGTTGG	-0.1 kcal/mol
TGTTTCACGTGACAGG	0.32 kcal/mol
GTAATCACGTGGATTG	0.18 kcal/mol
CAGTTCACGTGTAATG	0.45 kcal/mol
AGCGGCACGTGTTTTG	-0.03 kcal/mol
CGTGGCACGTGGATGC	-0.1 kcal/mol
AGTTTCACGTGACGAT	0.27 kcal/mol
AGCGACACGTGGTGGT	0 kcal/mol
TGGAGCACGTGCGGGT	-0.08 kcal/mol
TATGACACGTGCGGGG	-0.14 kcal/mol
TAATACACGTGTCGTT	-0.03 kcal/mol
ATCTTCACGTGGGTGG	0.21 kcal/mol

Sequence	relative binding free energy
GTGGGCACGTGGGATA	-0.16 kcal/mol
TAGTGCACGTGCGTAG	-0.09 kcal/mol
TGTTACACGTGCGGGC	0.06 kcal/mol
AAGGGCACGTGGACTT	-0.06 kcal/mol
CCTGTCACGTGAGTGG	0.09 kcal/mol
TATTGCACGTGGAGAT	0.06 kcal/mol
GAGCTCACGTGTGTTG	0.15 kcal/mol
TGATGCACGTGAGGTT	0.27 kcal/mol
TTTTGCACGTGGTATG	-0.06 kcal/mol
TTTGACACGTGTATAG	-0.05 kcal/mol
TGGTTCACGTGAGCGA	0.35 kcal/mol
GGTTACACGTGGGCGC	-0.05 kcal/mol
AGTGGCACGTGCTTAA	-0.2 kcal/mol
CGTGTCACGTGTTGTT	0.04 kcal/mol
TGGAACACGTGGTGGT	-0.02 kcal/mol
CAGGTCACGTGGTTGT	-0.01 kcal/mol
CGCGACACGTGGGTGG	-0.05 kcal/mol
TCGTGCACGTGAGTGC	0.07 kcal/mol
TGAATCACGTGGTGAG	-0.04 kcal/mol
TGTATCACGTGATTGC	0.22 kcal/mol
AGGGCCACGTGGGTTT	-0.24 kcal/mol

Source: the BET-seq Pho4 binding data (Le et al. 2018)
